# According to PubChem BioAssay AID504832 (National Center for Advancing Translational Sciences (NCATS), 2011):
# Hit rate of the full screen: of about 310,000 compounds, about 18,000 (5.8%) were called active. This list was built around the results that the source calls inconclusive (neither active nor inactive); the mix of calls is not that of the screen. The call rests on the fitted dose curve; in most records, active means well fitted inhibition curve with a large enough effect; inconclusive means small, poorly fitted or top-dose-only effect, or another doubt; inactive means no such curve, though single readings can be large or run the other way. Potencies of inconclusive entries are left out as doubtful fits.
# Experiment: Primary qHTS for delayed death inhibitors of the malarial parasite plastid, 48 hour incubation
# Settings: P. falciparum luciferase growth in erythrocytes; series mostly up to 28.7 µM; activity change, negative = inhibition: at the top concentration
# How it was run: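 Luciferase-expressing P. falciparum in infected erythrocytes (2% hematocrit, 0.1% parasitemia final) in RPMI 1640/0.5% Albumax were exposed to compound for 48 hours at 37 C, 5% CO2; growth read as luminescence.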
# On the % scale 0 is the no-effect control and ±100 the full control effect; potency means the concentration at half of the fitted maximal effect; tags describe the fitted curve by direction and shape.
Compound,"activity change, negative = inhibition",Potency
O=C(/C=C/c1ccc(F)cc1)Nc1cc(S(=O)(=O)N2CCOCC2)ccc1N1CCCC1,inactive: -6.12%,–
CCOC(=O)C1(Cc2cccc(Cl)c2)CCCN(C(=O)c2cc(CC)on2)C1 (stereo not drawn),–,"inconclusive [inhibitor, single point]"
O=C(CCN1C(=O)C2C3C=CC(C3)C2C1=O)N1CCN(c2ccc(F)cc2)CC1 (stereo not drawn),–,"inconclusive [inhibitor, single point]"
COCCCn1c(C)nc2c(c1=O)c1nc3ccccc3nc1n2CCc1ccccc1,–,"inconclusive [inhibitor, single point]"
C#CCOCCOCCOCCNc1nc(N2CCN(C(=O)[C@H]([C@@H](C)CC)n3cc(CCCCN)nn3)CC2)nc(N2CCN(C(=O)[C@H](CCCCN)n3cc(CCCC)nn3)CC2)n1,–,"inconclusive [inhibitor, single point]"
Cc1cc(C)c(C)c(S(=O)(=O)NC(C(=O)NCCc2ccco2)C(C)C)c1C (stereo not drawn),–,"inconclusive [inhibitor, partial curve, poor fit]"
CCOC(=O)c1ccc(-c2ccc(/C=N/NC(=O)c3cncc(Br)c3)o2)cc1,–,"inconclusive [inhibitor, single point]"
CC(=O)Nc1ccccc1Nc1cc(C#N)c(C#N)cc1[N+](=O)[O-],–,"inconclusive [inhibitor, partial curve, poor fit]"
NC(=O)Cn1c(=O)n(CCC(=O)Nc2ccc(F)cc2)c(=O)c2sccc21,inactive: 0.66%,–
COc1ccc2nc(N3C(=O)CC(Cc4ccc(Cl)cc4)C3=O)sc2c1 (stereo not drawn),–,"inconclusive [inhibitor, partial curve, poor fit]"
O=C1C(C=Nc2ccccc2)=C(O)c2ccccc21,inactive: 35.9%,–
O=C(Cc1ccc([N+](=O)[O-])cc1)Nc1ccc2c(c1)CCC2,inactive: 8.26%,–
c1ccc(Sc2ncccn2)nc1,–,"inconclusive [inhibitor, single point]"
CCOc1ccc(S(=O)(=O)N(CCO)CCO)cc1-c1nc2c(C(C)(C)C)nn(C)c2c(=O)[nH]1,–,"inconclusive [inhibitor, partial curve]"
COc1ccc([C@@H]2C[C@@H](c3ccccc3)Oc3cc(OC)cc(OC)c32)cc1,–,"inconclusive [inhibitor, partial curve]"
Cc1nc(Cl)sc1C(=O)Nc1cc(F)cc(F)c1,inactive: 0.28%,–
CCc1ccc(OCC(=O)NC(NC(=S)Nc2ccc(C)cc2C)C(Cl)(Cl)Cl)cc1 (stereo not drawn),–,"inconclusive [inhibitor, partial curve, poor fit]"
Cc1cccc(NC(=S)NC2CC3CCCC(C2)N3CC(C)C)c1 (stereo not drawn),–,"inconclusive [inhibitor, single point]"
COc1ccccc1C(=O)C1CCCN(C(=O)c2ccccc2Cl)C1 (stereo not drawn),–,"inconclusive [inhibitor, partial curve]"
Cc1ccc(-c2oc3ncnc(N)c3c2-c2ccc(C)cc2)cc1,–,active: 7.38 µM
CC(=O)c1cccc(NC(=O)C(C)N(C)CC(=O)Nc2ccc(Cl)cc2)c1 (stereo not drawn),inactive: -27.6%,–
CCOC(=O)c1c(-c2ccccc2)csc1NC(=S)N(CC)CC,–,active: 11.7 µM
O=C(Nc1cccnc1)Nc1ccc(F)c(Cl)c1,–,"inconclusive [inhibitor, single point]"

Compound,"activity change, negative = inhibition",Potency
COc1ccccc1C(c1nnnn1CS(=O)(=O)c1ccc(C)cc1)N1CCSCC1 (stereo not drawn),–,active: 9.28 µM
CCc1ccc(N(C(=O)CNC(=O)c2cccs2)C(C(=O)NC(C)(C)C)c2cc(OC)c(OC)c(OC)c2)cc1 (stereo not drawn),–,"inconclusive [inhibitor, partial curve, poor fit]"
CCOc1ccc(N2C(N)=NC(N)=NC2(C)C)cc1,–,active: 0.131 µM
CC(=O)[C@@H]1CC[C@@H]2[C@@H]3C[C@H](C)C4=CC(=O)CC[C@@]4(C)[C@H]3[C@H](O)C[C@]21C,–,"inconclusive [inhibitor, partial curve, poor fit]"
COc1ccc(Cc2nnc(NC(=O)c3ccccc3F)s2)cc1,inactive: 21.3%,–
COc1cccc(-c2cc(=O)c3cc(NC(=O)c4ccc(N(C)C)cc4)ccc3[nH]2)c1,–,active: 10.4 µM
CC1(C)Cc2nc(-c3ccccc3)nc(SCC(=O)N3CCCC3)c2CO1,–,"inconclusive [inhibitor, single point]"
O=C(COc1cccc(Br)c1)Nc1ccc(N2CCOCC2)cc1N1CCOCC1,–,"inconclusive [inhibitor, full curve, poor fit]"
COc1cc(C(=O)Nc2cccc(S(=O)(=O)NCc3ccco3)c2)cc(OC)c1OC,–,"inconclusive [inhibitor, single point]"
COC(=O)C1=C(C)N(C)C(C)=C(C(=O)OC)C1c1ccsc1,–,"inconclusive [inhibitor, partial curve]"
COCCN=C1N[C@@H](c2cccc(C(F)(F)F)c2)C(C(=O)OC)=C(C)N1Cc1ccccc1,–,"inconclusive [inhibitor, partial curve, poor fit]"
O=C(Nc1ccc(N2CCN(c3ncccc3C(F)(F)F)CC2)nc1)c1cccs1,–,active: 0.37 µM
CCOc1ccc2[nH]c(=O)c(C(c3nnnn3CC3CCCO3)N3CCc4ccccc4C3)cc2c1 (stereo not drawn),–,active: 10.4 µM
O=C(c1cc(C(=O)N2CCOCC2)c2nc3ccccc3n2c1)c1ccccc1O,–,"inconclusive [inhibitor, partial curve]"
CC#CCN1c2ccccc2[C@]23C[C@@H](C(=O)OC)N(C(=O)c4cc(C)oc4C)C2=NC(C(=O)OC)=C(C(=O)OC)[C@H]13,–,"inconclusive [inhibitor, partial curve, poor fit]"
COc1ccc(-c2nc(C)ncc2-c2ccc(Cl)cc2)c(O)c1,–,active: 4.65 µM
CC(=O)N1CCOc2ccc(S(=O)(=O)N3CCC(C)CC3)cc21,inactive: 19.2%,–
CC(/C=C1\SC(=S)N(NC(=O)c2ccncc2)C1=O)=C\c1ccccc1,–,"inconclusive [inhibitor, partial curve, poor fit]"
COc1ccc(NC(=O)c2nc(C)c(C3(C)CC(c4ccccc4)=NO3)s2)cc1 (stereo not drawn),–,"inconclusive [inhibitor, single point]"
Cc1ccc(C)c(NC(=O)COC(=O)c2cccc3c2C(=O)c2ccccc2C3=O)c1,–,"inconclusive [inhibitor, single point]"
S=c1[nH]nc(-c2cccnc2)n1/N=C/C=C/c1ccco1,inactive: -9.02%,–
C(=N\N1CCN(c2ccccc2)CC1)/c1ccccc1,inactive: 47%,–
CCOC(=O)C1CN(S(C)(=O)=O)c2cc(CC(=O)OC)ccc2O1 (stereo not drawn),–,"inconclusive [inhibitor, partial curve, poor fit]"

Compound,"activity change, negative = inhibition",Potency
COc1cc(NC(=O)N[C@H](C(=O)O)C(C)C)cc(OC)c1,inactive: 8.21%,–
CC(=O)c1ccc(OCc2cc(C(=O)NC(C)CCn3cccn3)no2)cc1 (stereo not drawn),inactive: -27.7%,–
CCCc1cc(=O)oc2c(C)c(OCC(=O)c3ccc(N4CCCC4)cc3)ccc12,–,"inconclusive [inhibitor, single point]"
O=C(N/N=C/c1ccc(OC(=O)c2cccs2)cc1)c1ccc(F)cc1,inactive: 10.5%,–
Cc1ccc(C(=O)NCC(=O)N(C)Cc2cccc(F)c2)s1,–,"inconclusive [inhibitor, single point]"
O=C(COC(=O)C1CCCCC1)Nc1ccccc1OC(F)F,inactive: -10.2%,–
COCCn1c(=NC(=O)CSC(C)=O)sc2cc(OC)ccc21,–,"inconclusive [inhibitor, single point]"
CC1=CC(C)(C)N(C(=O)c2ccc(F)cc2)c2cc3c(cc21)OCO3,–,active: 11.7 µM
c1cnc(N2CCN(Cc3ccc4c(c3)OCO4)CC2)cn1,inactive: 5.84%,–
O=C(NC(=S)Nc1cccc(Cl)c1N1CCOCC1)c1cccs1,inactive: -0.598%,–
COc1ccc(Oc2ccc(C(F)(F)F)cc2NC(=O)CC(CC(=O)O)c2ccccc2)cc1 (stereo not drawn),–,"inconclusive [inhibitor, partial curve]"
CCOc1ccc(CNC(=O)C2CCN(S(=O)(=O)c3ccc4c(c3)CCCC(=O)N4)CC2)cc1,–,active: 9.28 µM
CS(=O)(=O)c1ccc2nc(NC(=O)CN3CCCCCC3)sc2c1,–,"inconclusive [inhibitor, full curve, poor fit]"
CCOP(=O)(OCC)c1nc(/C=C/c2ccccc2)oc1NCc1ccccc1,–,active: 11.7 µM
COc1ccccc1Cn1c(=S)[nH]c2cc(C(=O)N3CCC(C(N)=O)CC3)ccc2c1=O,–,"inconclusive [inhibitor, partial curve]"
CC(C)Sc1nc(SCC(=O)NCc2ccco2)c2c3c(sc2n1)COC(C)(C)C3,–,"inconclusive [inhibitor, full curve]"
N#CC1=C(SCc2ccc(C#N)cc2)N=C(N)C(c2nc(-c3ccccc3)cs2)C12CCCCC2 (stereo not drawn),–,"inconclusive [inhibitor, partial curve]"
O=C(Cc1ccccc1F)Nc1ccc(S(=O)(=O)N2CCCCC2)cc1,inactive: -13.3%,–
CCOc1ccc(C(C(=O)NCC2CCCO2)N(Cc2cccs2)C(=O)c2snc(C(N)=O)c2N)cc1 (stereo not drawn),–,active: 13.1 µM
Cc1ccc(C)c(CN2CCC(CNC(=O)Nc3cccc(Cl)c3C)CC2)c1,–,"inconclusive [inhibitor, single point]"
CC1CC(=O)Nc2ccccc2N1C(=O)CN1CCN(c2ccccc2)CC1 (stereo not drawn),inactive: -3.5%,–
Cc1cc(C)n(-c2ccc(NC(=O)C3CCN(Cc4cc(C)c(C)o4)CC3)cc2)n1,–,"inconclusive [inhibitor, partial curve]"
